Test results published in PubChem BioAssay AID1030 (National Center for Advancing Translational Sciences (NCATS), 2008).
“And” between values parts separate entries of the source, which are not always exact repeats. Equal values may be shown once. In all, about 220,000 compounds went through this assay and about 16,000 (7.3%) were called active. This list was built around the results that the source calls inconclusive (neither active nor inactive); the mix of calls is not that of the screen. Calls follow the shape of the dose curve; as a rule, active = well fitted inhibition curve with a large enough effect (not every such curve was filed as active); inconclusive = small, poorly fitted or top-dose-only effect, or another doubt; inactive = no such curve, though single readings can be large or run the other way. A potency beside an inconclusive call is a rough fit, not a confirmed value.

Molecular target: Aldehyde dehydrogenase 1A1 (Homo sapiens) (UniProt P00352)
Test: qHTS Assay for Inhibitors of Aldehyde Dehydrogenase 1 (ALDH1A1);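 as to activity, negative = inhibition: plate controls were no enzyme wells and a reference inhibitor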
Details: Purified ALDH1A1, NADH fluorescence, propionaldehyde substrate; series mostly up to 75.3 µM; activity, negative = inhibition: at the top concentration
Potency is read from the fitted curve at half-maximal effect; tags tell the direction and shape of the fitted curve.

Chain of UniProt P00352 (P00352 whole entry, looked up): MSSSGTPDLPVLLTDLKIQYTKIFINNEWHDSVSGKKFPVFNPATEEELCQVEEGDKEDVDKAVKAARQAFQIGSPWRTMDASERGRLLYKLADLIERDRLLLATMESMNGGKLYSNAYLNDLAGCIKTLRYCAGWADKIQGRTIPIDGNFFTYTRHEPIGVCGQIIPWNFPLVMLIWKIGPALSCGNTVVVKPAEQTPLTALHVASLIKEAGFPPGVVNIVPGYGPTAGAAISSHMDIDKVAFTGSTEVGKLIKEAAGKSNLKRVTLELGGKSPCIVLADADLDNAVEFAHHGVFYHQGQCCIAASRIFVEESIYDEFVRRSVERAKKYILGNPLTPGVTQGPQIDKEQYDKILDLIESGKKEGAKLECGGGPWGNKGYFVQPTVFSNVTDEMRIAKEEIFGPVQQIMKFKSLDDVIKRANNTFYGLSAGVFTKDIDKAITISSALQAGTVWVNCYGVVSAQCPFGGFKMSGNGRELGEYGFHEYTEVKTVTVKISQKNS

SMILES	Potency	activity, negative = inhibition
CC1(C)CC(=O)c2cnc(N)nc2C1	inconclusive: 14.1 µM [inhibitor, single point]	–
CC(NC(=O)c1cc(-c2ccc(Br)cc2)on1)c1ccccc1 (stereo unspecified)	inconclusive: 39.8 µM [inhibitor, single point]	–
CCSc1nc2sc3c(c2c(=O)n1C1CCCCC1)CCN(C)C3	inconclusive: 17.8 µM [inhibitor, single point]	–
Cc1ccccc1CCNC(=O)C1CCN(S(=O)(=O)c2ccc(-n3cnnn3)cc2)CC1	inconclusive: 10 µM [inhibitor, partial curve, poor fit]	–
CCN=C1S/C(=C\c2ccc(-c3cccc(C(=O)O)c3)o2)C(=O)N1CC	inconclusive: 20 µM [inhibitor, partial curve]	–
Cc1ccc(-c2ccc(S(=O)(=O)NCc3ccco3)cc2)cc1	–	inactive: 11.6%
O=C(C1=C[C@@H](c2ccc3c(c2)OCO3)C[C@@H](OCCCCO)O1)N1CCOCC1	inconclusive: 14.1 µM [inhibitor, partial curve]	–
COc1ccc(COc2cc(-c3cccc(OC)c3)nc3ccc(NC(=O)c4ccccc4)cc23)cc1	inconclusive: 39.8 µM [inhibitor, single point] and inconclusive: 14.1 µM [inhibitor, partial curve]	–
COc1ccc2[nH]c(=O)c(CN(Cc3ccccc3)Cc3nnnn3CC3CCCO3)cc2c1 (stereo unspecified)	inconclusive: 25.1 µM [inhibitor, partial curve]	–
COc1cc(/C=N/NC(=S)Nc2cccc(C(=O)O)c2)cc(OC)c1OC	active: 14.1 µM	–
CC(C)c1ccc2c(c1)C1(NN=C(c3ccccc3)S1)C(=O)N2 (stereo unspecified)	inconclusive: 35.5 µM [inhibitor, single point]	–
CCOC(=O)c1c(-c2ccc(C)o2)csc1N	inconclusive: 39.8 µM [inhibitor, single point]	–
COC(=O)C(CC(=O)c1ccc(Cl)cc1)c1ccc(C)cc1 (stereo unspecified)	–	inactive: -3.63%
CCn1c(SCC(=O)c2ccc(Cl)cc2)nnc1C(C)C	inconclusive: 39.8 µM [inhibitor, single point]	–
CC(C)[C@H](NC(=O)c1ccccc1Cl)C(=O)OCc1cc(=O)n2cc(Br)ccc2n1	inconclusive: 20 µM [inhibitor, partial curve]	–
CC(=O)Oc1cccc(N2C(=O)C3C(C2=O)C2C=CC3C23CC3)c1 (stereo unspecified)	active: 20 µM	–
O=C(N/N=C\c1ccc(Cl)s1)c1cccs1	inconclusive: 39.8 µM [inhibitor, single point]	–
CC(=O)c1sc(Nc2ccc(C)cc2)nc1C	–	inactive: -9.32%
O=C(CSc1nc2cc(Cl)ccc2s1)N1CCN(C(=O)c2ccco2)CC1	inconclusive: 39.8 µM [inhibitor, single point]	–
Cc1nc(SC(C(=O)c2ccccc2)c2ccccc2)nc2ccccc12 (stereo unspecified)	inconclusive: 2.82 µM [inhibitor, full curve, poor fit]	–
Cc1ccc(NCC(=O)N/N=C/c2ccc(OC(=O)c3ccco3)cc2)cc1	inconclusive: 20 µM [inhibitor, partial curve, poor fit]	–
O=C(CCC(=O)Nc1nnc(C2CCCCC2)s1)NCc1cccs1	–	inactive: -14.6%
CC(=O)NC1=NN(C(C)=O)C2(CCCC2)S1	inconclusive: 39.8 µM [inhibitor, single point]	–
CCC(C)NC(=O)CSc1nc2scc(-c3ccccc3)c2c(=O)[nH]1 (stereo unspecified)	inconclusive: 39.8 µM [inhibitor, single point]	–

SMILES	Potency	activity, negative = inhibition
CCCCN(C)CCC(=O)Nc1ccc(Cl)cc1	–	inactive: 6.04%
Cc1nc2nc[nH]n2c(=O)c1CCC(C)C	inconclusive: 39.8 µM [inhibitor, single point]	–
CCOc1ccc(Cn2c(O)cc(=O)[nH]c2=O)cc1	active: 17.8 µM	–
COC(=O)N(/C=C/c1ccc(OC)cc1)CCc1ccc(OC)c(OC)c1	–	inactive: 1.29% [at 13.5 µM]
Cc1nc(C/C(=N\N)c2ccc(O)cc2O)cs1	inconclusive: 35.5 µM [inhibitor, single point]	–
COc1ccc(/C=N/n2cnnc2)cc1Oc1nc(Cl)ncc1F	inconclusive: 39.8 µM [inhibitor, single point]	–
Cn1c(=O)[nH]c(=O)c2c1nc(N1CCN(Cc3ccccc3)CC1)n2CCCc1ccccc1	inconclusive: 3.55 µM [inhibitor, full curve]	–
O=c1oc(-c2cccs2)nc2ccc(Cl)cc12	inconclusive: 28.2 µM [inhibitor, partial curve]	–
Cc1ccc(OCC(=O)Nc2ccc(F)cc2)c([N+](=O)[O-])n1	inconclusive: 22.4 µM [inhibitor, single point]	–
CCOCCCN1CN(S(=O)(=O)c2ccc(Cl)cc2)c2nc3ccccc3nc21	inconclusive: 35.5 µM [inhibitor, single point]	–
Cc1ccc(C)c(OCCn2cc(/C=C(/C#N)C(=O)NCC3CCCO3)c3ccccc32)c1 (stereo unspecified)	inconclusive: 25.1 µM [inhibitor, single point]	–
Cc1nnc(NC(=O)c2ccc(C)c(S(=O)(=O)N3CCOCC3)c2)s1	–	inactive: 8.91%
Cc1ccsc1C(=O)NNC(=O)C1CCCCC1C(=O)O (stereo unspecified)	active: 22.4 µM	–
Cc1ccc(S(=O)(=O)Nc2nc(C)cc(N/N=C/c3ccc(O)cc3)n2)cc1	inconclusive: 35.5 µM [inhibitor, single point]	–
Cc1ccc(C2CC(c3cccs3)=NN2C(=O)CSC2=NN3CCCC(=O)N=C3S2)cc1 (stereo unspecified)	active: 28.2 µM	–
Cc1ccc(C(=O)CN2C(=O)C(=O)N(Cc3ccccc3)C2=O)cc1	–	inactive: -5.61%
COc1ccc(C(=O)NC(=S)Nc2ccccc2F)cc1	inconclusive: 25.1 µM [inhibitor, single point]	–
O=C(NC(=S)Nc1ccc(S(=O)(=O)N2CCCCC2)cc1)c1ccc(Cl)cc1	active: 0.501 µM	–
CCN(Cc1ccccc1)C(=O)/C=C/c1ccccc1[N+](=O)[O-]	inconclusive: 35.5 µM [inhibitor, partial curve]	–
O=S(=O)(c1cnc(Cl)c(Br)c1)N1CCN(c2ncccn2)CC1	active: 0.355 µM	–
COc1cccc(/C=C/C(=O)c2ccc(NC3=NCCCS3)cc2)c1	inconclusive: 39.8 µM [inhibitor, single point]	–
Cc1ccc(N=Cc2cc(Cc3ccccc3Cl)cc([N+](=O)[O-])c2O)c(O)c1	active: 11.2 µM	–
CCCCOc1ccc(CN(CCO)CCO)cc1[N+](=O)[O-]	inconclusive: 37.7 µM [inhibitor, single point]	–
COc1ccc(S(=O)(=O)N2CCN(c3ccccn3)CC2)cc1OC	inconclusive: 44.7 µM [inhibitor, single point]	–

SMILES	Potency	activity, negative = inhibition
Cc1[nH]c2ccccc2c1C(=O)CNc1nccs1	inconclusive: 35.5 µM [inhibitor, single point]	–
Cc1ccsc1/C=C1\CCC(C2CCCC2)C1=O (stereo unspecified)	inconclusive: 12.6 µM [inhibitor, partial curve]	–
CS(=O)(=O)c1ccc(N2CCOCC2)c(S(C)(=O)=O)c1	–	inactive: 6.25%
CN1CCN(Cc2cc(=O)oc3ccc(Cl)cc23)CC1	inconclusive: 35.5 µM [inhibitor, single point]	–
COc1ccc(OC)c(C2C(C(C)=O)=C(O)C(=O)N2c2ccc(F)cc2)c1 (stereo unspecified)	inconclusive: 28.2 µM [inhibitor, single point]	–
CCCCOc1ccc(C2OC34CCCCC3C(C#N)(C#N)C2(C#N)C(=N)O4)cc1 (stereo unspecified)	inconclusive: 25.1 µM [inhibitor, partial curve]	–
COc1cc(OC)c(C2C(C(=O)O)c3ccccc3C(=O)N2C)cc1OC (stereo unspecified)	inconclusive: 22.4 µM [inhibitor, single point]	–
CCOC(=O)c1[nH]c(C)c(C(=O)OCc2c(C)noc2C)c1C	–	inactive: 0.702%
CCn1c(SCC(=O)NCC2CCCO2)nnc1-c1c[nH]c2ccccc12 (stereo unspecified)	–	inactive: -19.3%
O=C(c1ccc(NS(=O)(=O)c2ccccc2)cc1)N1CCCC1	inconclusive: 31.6 µM [inhibitor, single point]	–
Cc1cccn2c(=O)c3cc(C(=O)NCCc4ccccc4)c(=N)n(CCCn4ccnc4)c3nc12	active: 5.62 µM	–
CCCC[n+]1ccn(-c2nc3ccccc3nc2[N-]S(=O)(=O)c2ccc(C)cc2)c1	inconclusive: 12.6 µM [inhibitor, partial curve]	–
O=C1c2cccc3c(O)ccc(c23)C(=O)N1Cc1ccccc1	–	inactive: -7.86%
O=C(C1CCCN(S(=O)(=O)c2cccc3cccnc23)C1)N1CCc2ccccc21 (stereo unspecified)	inconclusive: 39.8 µM [inhibitor, single point]	–
O=C1C2C(C(=O)N1/N=C/c1ccc(N3CCCCC3)o1)C1C=CC2C12CC2 (stereo unspecified)	active: 8.91 µM	–
CS(=O)(=O)N1CCCC(C(=O)NCCCN2CCc3ccccc3C2)C1 (stereo unspecified)	–	inactive: 0.651%
CCc1nc(Nc2ccncc2)c2oc3ccccc3c2n1	inconclusive: 39.8 µM [inhibitor, single point]	–
O=C(CCC1CCCN(C(=O)Cc2ccc(F)cc2)C1)N1CCN(c2ccccn2)CC1 (stereo unspecified)	–	inactive: -10.9%
CCC(C)(C)NC(=O)c1ccc(S(=O)(=O)N(C)c2ccccc2OC)cc1	–	inactive: 4.46%
Cc1cc(NC(=O)CN2CCCC(C)C2)no1 (stereo unspecified)	–	inactive: 5.52%
CCC1(c2cccc(Cl)c2)NC(=O)N(Cc2cc(C(=O)OC)c(C)o2)C1=O (stereo unspecified)	inconclusive: 37.7 µM [inhibitor, single point]	–
CCOC(=O)C1CCCN(S(=O)(=O)c2cc(OCC(=O)NC3CCCCC3)c(C)cc2Cl)C1 (stereo unspecified)	active: 7.08 µM	–
N#Cc1ccccc1NC(=O)COC(=O)CCc1ccc(S(=O)(=O)N2CCCCC2)cc1	inconclusive: 25.1 µM [inhibitor, single point]	–
